Test results taken from PubChem BioAssay AID1508623 (National Center for Advancing Translational Sciences (NCATS), 2021).
Hit rate of the full screen: of about 48,000 compounds, about 450 (0.94%) were called active. The shares of active, inactive and inconclusive entries below differ from those in the screen. Calls follow the shape of the dose curve; as a rule, active = well fitted inhibition curve with a large enough effect; inconclusive = small, poorly fitted or top-dose-only effect; inactive = no such curve, though single readings can be large or run the other way. Where the call is inconclusive, the potency comes from a doubtful curve fit.

Assay: Primary qHTS for Identification of Small Molecule Inhibitors of Huntingtin Promoter Activity; also: nearly all actives have a fitted effect of over 50% in size
Settings: HEK293 HTT promoter firefly luciferase reporter (activity 0% = vehicle and -100% = no light), 24 h; series mostly up to 57.5 µM
Procedure, shortened: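 Quantitative HTS used concentration series of up to 57.5 uM final on HEK293 luciferase reporter cells, 24 h at 37 degrees C. Readout was Dual-Glo firefly luminescence.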
Potency is read from the fitted curve at half-maximal effect; tags tell the direction and shape of the fitted curve.

| Structure (SMILES) | Potency |
| --- | --- |
| CCCCNC(=O)c1ccc2c(c1)NC(=O)C(CS(=O)(=O)Cc1cccc(C)c1)N2 (configuration not stated) | inconclusive: 25.1 µM [inhibitor, single point] |
| CC(C)C(=O)N1c2ncnn2C2(CCCCC2)[C@@H]2CCCC[C@@H]21 | inconclusive: 28.2 µM [inhibitor, partial curve, poor fit] |
| COc1ccc(C2CC(=O)N(Cc3ccc(F)cc3)c3ccccc3S2)cc1 (configuration not stated) | inconclusive: 31.6 µM [inhibitor, partial curve] |
| CCOc1ccc(NC(=O)CC2C(=O)N(c3ccccc3)C(=O)N2C2CCCCC2)cc1 (configuration not stated) | inconclusive: 17.8 µM [inhibitor, partial curve, poor fit] |
| O=c1c2cn[nH]c2nc(SCc2cccc(Br)c2)n1-c1ccc(Cl)cc1 | inconclusive: 39.8 µM [inhibitor, single point] |
| CCOc1ccc(CCNC(=O)CCc2c(C)nc3c(-c4ccccc4)c(C)nn3c2C)cc1OCC | inactive |
| C=CCC(CC=C)(CNC(=O)C(=O)Nc1cc(C)ccc1OC)c1ccc(OC)c(OC)c1 | inconclusive: 25.1 µM [inhibitor, partial curve, poor fit] |
| CCOC(=O)c1cccc(NC(=O)C2CCCN(S(=O)(=O)c3ccc4c(c3)oc(=O)n4C)C2)c1 (configuration not stated) | inconclusive: 28.2 µM [inhibitor, single point] |
| Cc1nc2nncn2c(NCc2ccc(Cl)cc2)c1C | inconclusive: 1.12 µM [inhibitor, full curve, poor fit] |
| Cc1csc2nc(COC(=O)c3ccccc3NC(=O)COc3ccccc3F)cc(=O)n12 | inconclusive: 35.5 µM [inhibitor, partial curve, poor fit] |
| C=CCc1cccc(C=NNC(=O)CN2CCN(Cc3ccccc3)CC2)c1O | inconclusive: 43.2 µM [inhibitor, partial curve, poor fit] |
| COc1ccc(-c2c3c(=O)n(C)c(=O)n(C)c3c3c(-c4cccc(C)c4)nc4ccccc4n23)cc1 | inconclusive: 28.2 µM [inhibitor, partial curve] |
| CCOC(=O)c1ccc2c(c1)N(C(CC)C(=O)Nc1ccccc1OC)C(=O)c1ccccc1S2 (configuration not stated) | inconclusive: 31.6 µM [inhibitor, partial curve, poor fit] |
| Cn1ccc2cc3c(cc21)CCN3C(=O)Nc1cccnc1 | inactive |
| Cc1cccc(-n2ccnc2SCC(=O)Nc2ccc(F)cc2F)c1C | inconclusive: 35.5 µM [inhibitor, single point] |
| O=C(Cn1c(=O)oc2cc(S(=O)(=O)N3CCCCCC3)ccc21)NCc1ccccc1Cl | inconclusive: 20 µM [inhibitor, partial curve, poor fit] |
| Cc1ccc(C)c(CN2CCC(CNC(=O)Nc3ccc(Br)cc3F)CC2)c1 | inconclusive: 12.6 µM [inhibitor, partial curve, poor fit] |
| O=C(c1ccc(CSc2nc3ccncc3n2Cc2ccc(F)cc2)cc1)N1CCCCCC1 | inconclusive: 28.2 µM [inhibitor, partial curve, poor fit] |
| CCc1ccccc1NC(=O)Nc1ccc2c(c1)N(CC)C(=O)c1ccccc1S2 | inconclusive: 28.2 µM [inhibitor, partial curve, poor fit] |

| Structure (SMILES) | Potency |
| --- | --- |
| CCOc1ccccc1CNC(=O)c1cc2n(n1)CCCN(Cc1ccc(C)cc1)C2=O | inconclusive: 28.2 µM [inhibitor, partial curve, poor fit] |
| CCOc1ccc(NC(=O)CSc2nc(C)c(C(=O)Nc3ccccc3)c(-c3ccc(Cl)cc3)c2C#N)cc1 | inconclusive: 14.1 µM [inhibitor, partial curve, poor fit] |
| CCc1cccc(-n2c(C)nc3c(cnn3-c3ccc(C)c(C)c3)c2=O)c1 | inconclusive: 39.8 µM [inhibitor, single point] |
| O=C(Nc1ccc(OC(F)(F)F)cc1)c1nc2ccccc2nc1N1CCCCC1 | inactive |
| CCCCSc1nnc2c(n1)OC(c1ccc(Br)s1)N(C(C)=O)c1ccccc1-2 (configuration not stated) | inconclusive: 35.5 µM [inhibitor, partial curve, poor fit] |
| CSc1ccc(CCNC(=O)Cn2ccc3cc(S(=O)(=O)N4CCCCCC4)ccc32)cc1 | inconclusive: 8.91 µM [inhibitor, full curve] |
| Nc1c(C(=O)Nc2ccc(OC(F)(F)F)cc2)sc2nc(-c3ccncc3)ccc12 | inconclusive: 7.08 µM [inhibitor, partial curve] |
| CCOc1ccccc1-c1noc(CSc2nnc(-c3ccccc3)n2-c2ccc(F)cc2)n1 | inconclusive: 31.6 µM [inhibitor, single point] |
| CC(C)NCCCC1(C(N)=O)c2ccccc2-c2ccccc21 | inactive |
| Cc1ccc(CCNC(=O)c2ccc3c(Cl)c4c(nc3c2)CCCC4)cc1 | inconclusive: 39.8 µM [inhibitor, single point] |
| COc1ccccc1CNC(=O)c1ccc2nc(N3CCCCC3)sc2c1 | inconclusive: 8.91 µM [inhibitor, partial curve] |
| Cc1ccc(-n2c(=O)cc(N3CCN(c4ccccc4Cl)CC3)[nH]c2=O)cc1 | inconclusive: 35.5 µM [inhibitor, single point] |
| COc1cccc(Cn2c(Oc3cc(C)cc(C)c3)nc3c2c(=O)n(C)c(=O)n3C)c1 | inactive |
| CCOC(=O)c1ccc(N2C(=O)c3n[nH]c(-c4ccco4)c3C2c2ccc(C)cc2)cc1 (configuration not stated) | inconclusive: 39.8 µM [inhibitor, single point] |
| CC(=O)c1ccc(NS(=O)(=O)c2cccc(S(=O)(=O)c3ccc(Cl)cc3)c2)cc1 | inconclusive: 39.8 µM [inhibitor, partial curve, poor fit] |
| CCOc1ccc(CCNC(=O)CN2CCN(Cc3ccc(Cl)cc3)C2=O)cc1OCC | inconclusive: 31.6 µM [inhibitor, single point] |
| O=C(Nc1ccc(F)c(Cl)c1)N1CC=C(c2c[nH]c3ccccc23)CC1 | inconclusive: 7.08 µM [inhibitor, full curve, poor fit] |
| Cn1c(=O)oc2cc(S(=O)(=O)N3CCCC(C(=O)NCc4ccc(F)cc4)C3)ccc21 (configuration not stated) | inconclusive: 20 µM [inhibitor, partial curve, poor fit] |
| Cc1ccc(N2CCN(C(=O)c3cnc(N4CCCCC4)c4ccccc34)CC2)c(C)c1 | inconclusive: 17.8 µM [inhibitor, single point] |

| Structure (SMILES) | Potency |
| --- | --- |
| COc1cc(OC)c(NC(=O)CCCn2nc(C)c3c(C)n(-c4ccccc4)nc3c2=O)cc1Cl | inconclusive: 39.8 µM [inhibitor, single point] |
| O=C(NC1CC(=O)N(c2ccccc2)C1)c1ccc(S(=O)(=O)N2CCCCC2)cc1 (configuration not stated) | inconclusive: 17.8 µM [inhibitor, partial curve, poor fit] |
| COc1cc(OC)nc(O[C@H](C(=O)O)C(OC)(c2ccccc2)c2ccccc2)n1 | inactive |
| Cc1cccc(OCC(=O)N(Cc2ccc(C(C)(C)C)cc2)Cc2ccco2)c1 | inconclusive: 25.1 µM [inhibitor, single point] |
| CC(C)c1ccc(NC(=O)C(C)N(c2ccccc2)S(C)(=O)=O)cc1 (configuration not stated) | inconclusive: 25.1 µM [inhibitor, partial curve, poor fit] |
| COc1cc(OC)c(NC(=O)N2CC3CCCN3c3ccccc32)cc1Cl (configuration not stated) | inconclusive: 39.8 µM [inhibitor, single point] |
| COCCCNc1nc(NCc2cccc(Cl)c2)c2cnn(C)c2n1 | inconclusive: 11.2 µM [inhibitor, partial curve, poor fit] |
| Cc1c(C(=O)Nc2ccc(C(C)C)cc2)sc2nc3n(c(=O)c12)CCC3 | inconclusive: 2.82 µM [inhibitor, partial curve, poor fit] |
| CCOC(=O)c1c(Nc2ccc(F)cc2)nnc(-c2ccccc2)c1-c1ccccc1 | inconclusive: 35.5 µM [inhibitor, single point] |
| COc1ccc(CCCc2nnc(SCC(=O)Nc3cc(C)ccc3C)o2)cc1 | inconclusive: 28.2 µM [inhibitor, partial curve, poor fit] |
| Cc1nc2ccc(S(=O)(=O)N(CC(=O)Nc3cccc(Cl)c3)Cc3ccccc3)cc2s1 | inconclusive: 28.2 µM [inhibitor, single point] |
| Cc1nn(CC(=O)NCc2ccc(N(C)C)cc2)c(=O)c2c(C)n(-c3ccc(Cl)cc3)nc12 | inconclusive: 8.91 µM [inhibitor, partial curve, poor fit] |
| CCOc1ccc(Cn2nnc(C(=O)Nc3cccc(SC)c3)c2N)cc1 | inactive |
| Cc1cc(NC(=O)c2cc(-c3cccc(Cl)c3)on2)nn1Cc1ccc(Cl)cc1 | active: 1.58 µM |
| CC1CCC(NC(=O)CCc2cn(Cc3ccccc3Cl)c3ccccc23)CC1 (configuration not stated) | inconclusive: 31.6 µM [inhibitor, single point] |
| Cc1ccc(CN2C(=O)N(c3ccc(F)cc3)C(=O)C2CC(=O)Nc2ccc(Cl)cc2)cc1 (configuration not stated) | inconclusive: 35.5 µM [inhibitor, single point] |
| Cc1nnc(N2CCC(C(=O)Nc3ccc(F)cc3)CC2)c2nn(-c3ccc(Cl)cc3)c(C)c12 | inconclusive: 39.8 µM [inhibitor, single point] |
| O=C(CSC1=Nc2ccccc2N=C(c2ccc(F)cc2)C1)Nc1cccc(C(F)(F)F)c1 | inconclusive: 39.8 µM [inhibitor, single point] |
| COc1cccc(N2CCN(C(=O)C3Cc4ccccc4N3C(C)=O)CC2)c1 (configuration not stated) | inconclusive: 25.1 µM [inhibitor, partial curve, poor fit] |
